This is a selection; strong and weak results do not stand in their true shares. The list includes weakly bound sequences.

Common to all, as to assay: protein-binding microarray (PBM)
Settings in all cases: PBM: ~300 nM protein, 6 mM HEPES pH 7.8, 80 mM KCl, 0.5 mM EDTA, 0.5 mM EGTA, 6% glycerol, 35 ng/ul poly-dIdC, 1% milk, 1 h, room temperature; Ap Aiptasia and Nv Nematostella (sea anemones) / Co Capsaspora / Aq Amphimedon (sponge) / Dm Drosophila / Hu human; RHD is the Rel homology domain; high values mean tight binding; most listed sequences are background and not binding sites; double strand, one strand shown

One test concerns the target T1, GST-Ap-NF-kB RHD (UniProt A0A913YAJ5).
T1 sequence: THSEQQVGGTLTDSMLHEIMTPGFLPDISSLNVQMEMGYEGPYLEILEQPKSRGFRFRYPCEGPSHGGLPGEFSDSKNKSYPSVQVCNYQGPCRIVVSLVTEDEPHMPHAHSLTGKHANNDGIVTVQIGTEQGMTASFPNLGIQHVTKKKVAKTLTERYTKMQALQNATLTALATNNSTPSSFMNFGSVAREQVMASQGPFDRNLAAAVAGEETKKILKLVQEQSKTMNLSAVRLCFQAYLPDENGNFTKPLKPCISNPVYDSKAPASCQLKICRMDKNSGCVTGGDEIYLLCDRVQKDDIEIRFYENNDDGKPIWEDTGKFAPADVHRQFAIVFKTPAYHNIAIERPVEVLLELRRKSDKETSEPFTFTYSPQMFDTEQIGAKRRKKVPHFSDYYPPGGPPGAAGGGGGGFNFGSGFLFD

Test [1] concerns the target T2, GST-Nv-NF-kB (Cys allele) (UniProt E5G601).
T2 sequence: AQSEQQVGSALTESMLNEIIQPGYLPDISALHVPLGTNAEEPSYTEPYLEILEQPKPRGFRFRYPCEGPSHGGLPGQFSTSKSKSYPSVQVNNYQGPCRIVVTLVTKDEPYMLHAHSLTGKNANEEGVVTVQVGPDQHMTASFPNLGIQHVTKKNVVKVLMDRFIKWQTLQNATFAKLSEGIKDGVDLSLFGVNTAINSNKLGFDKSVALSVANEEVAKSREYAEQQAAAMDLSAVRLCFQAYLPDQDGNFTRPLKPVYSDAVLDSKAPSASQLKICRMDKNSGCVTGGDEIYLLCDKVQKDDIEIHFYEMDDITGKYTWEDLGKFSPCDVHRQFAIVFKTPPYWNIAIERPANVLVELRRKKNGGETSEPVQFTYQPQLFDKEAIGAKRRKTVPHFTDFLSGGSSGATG

Another test addresses T3, GST-Co-NF-kB (UniProt F1ARL5).
T3 sequence: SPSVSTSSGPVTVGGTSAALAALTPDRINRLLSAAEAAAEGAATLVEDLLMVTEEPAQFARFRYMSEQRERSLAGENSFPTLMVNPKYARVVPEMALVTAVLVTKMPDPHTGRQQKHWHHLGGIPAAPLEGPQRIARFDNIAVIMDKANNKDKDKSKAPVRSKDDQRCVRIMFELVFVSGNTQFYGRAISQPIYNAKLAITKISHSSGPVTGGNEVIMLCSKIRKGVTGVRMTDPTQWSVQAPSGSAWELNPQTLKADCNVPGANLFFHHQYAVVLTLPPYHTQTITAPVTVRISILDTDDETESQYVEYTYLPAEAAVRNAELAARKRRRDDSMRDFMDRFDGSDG

The target of another test is T4, GST-Dm-Relish (UniProt Q94527).
T4 sequence: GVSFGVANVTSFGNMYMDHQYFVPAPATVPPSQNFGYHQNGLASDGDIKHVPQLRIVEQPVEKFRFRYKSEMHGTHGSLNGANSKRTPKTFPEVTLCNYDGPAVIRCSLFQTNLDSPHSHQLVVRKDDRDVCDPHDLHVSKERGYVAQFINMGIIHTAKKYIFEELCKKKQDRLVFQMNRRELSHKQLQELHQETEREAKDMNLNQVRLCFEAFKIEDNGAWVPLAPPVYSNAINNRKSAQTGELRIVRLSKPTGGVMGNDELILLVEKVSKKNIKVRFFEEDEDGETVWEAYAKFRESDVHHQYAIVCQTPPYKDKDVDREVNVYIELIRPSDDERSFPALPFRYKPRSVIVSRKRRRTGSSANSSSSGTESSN

A further test concerns the target T5, GST-Aq-NF-kB (UniProt A9Y5G7).
T5 sequence: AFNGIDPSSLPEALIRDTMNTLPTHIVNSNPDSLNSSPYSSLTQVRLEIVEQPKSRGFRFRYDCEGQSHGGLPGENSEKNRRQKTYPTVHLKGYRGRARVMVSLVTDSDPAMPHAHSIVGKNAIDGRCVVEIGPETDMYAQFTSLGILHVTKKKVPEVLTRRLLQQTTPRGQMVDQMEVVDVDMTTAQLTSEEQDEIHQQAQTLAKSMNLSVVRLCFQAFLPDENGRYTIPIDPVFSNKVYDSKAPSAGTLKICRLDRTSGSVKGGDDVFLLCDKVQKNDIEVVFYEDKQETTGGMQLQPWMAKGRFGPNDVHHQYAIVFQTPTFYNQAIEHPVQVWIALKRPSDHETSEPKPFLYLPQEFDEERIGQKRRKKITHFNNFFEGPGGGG

Consider “CCGATTAACATCACGGTGTGGGTTGATGTTAATCGGGTCTTGATTCGCTTGACGCTGCTG”, for which the binding signal with GST-Ap-NF-kB RHD was 0.591 z-score; in test [1] it was -0.466 z-score; with GST-Co-NF-kB it was 1.37 z-score; in the test with GST-Dm-Relish, 0.0597 z-score; with GST-Aq-NF-kB, 0.0136 z-score.

As to “CCGATTAACATCATGCACTTGCGTGATGTTAATCGGGTCTTGATTCGCTTGACGCTGCTG”, the binding signal with GST-Ap-NF-kB RHD was -0.899 z-score; in test [1] it was -0.149 z-score; with GST-Co-NF-kB it was -1.33 z-score; with GST-Dm-Relish, -0.362 z-score; in the test with GST-Aq-NF-kB, -0.342 z-score.

Consider “CCGATTAACATCAAATTGCTGCGTGATGTTAATCGGGTCTTGATTCGCTTGACGCTGCTG”, for which the binding signal with GST-Ap-NF-kB RHD was -0.161 z-score; in test [1] it was -0.273 z-score; with GST-Co-NF-kB, -0.0769 z-score; in the test with GST-Dm-Relish, -0.786 z-score; in the test with GST-Aq-NF-kB, -0.422 z-score.

Take “CCGATTAACATCAACCGAACTTTTGATGTTAATCGGGTCTTGATTCGCTTGACGCTGCTG”: the binding signal with GST-Ap-NF-kB RHD was -0.739 z-score; in test [1] it was 0.343 z-score; with GST-Co-NF-kB, 0.396 z-score; with GST-Dm-Relish, -0.0344 z-score; with GST-Aq-NF-kB it was -0.403 z-score.

On to “CCGATTAACATCACGTCTCCACATGATGTTAATCGGGTCTTGATTCGCTTGACGCTGCTG”, for which the binding signal with GST-Ap-NF-kB RHD is -0.441 z-score; in test [1], 0.503 z-score; with GST-Co-NF-kB, -0.128 z-score; in the test with GST-Dm-Relish, -0.17 z-score; with GST-Aq-NF-kB it was -0.423 z-score.

As for “CCGATTAACATCATCGCTTCCACTGATGTTAATCGGGTCTTGATTCGCTTGACGCTGCTG”, the binding signal with GST-Ap-NF-kB RHD was -0.571 z-score; in test [1], -0.0402 z-score; with GST-Co-NF-kB it was -0.0602 z-score; in the test with GST-Dm-Relish, -0.176 z-score; with GST-Aq-NF-kB it was -0.478 z-score.

In the case of “CCGATTAACATCACATTCTCTATTGATGTTAATCGGGTCTTGATTCGCTTGACGCTGCTG”, the binding signal is -0.509 z-score with GST-Ap-NF-kB RHD; -0.501 z-score in test [1]; 0.19 z-score with GST-Co-NF-kB; -0.216 z-score with GST-Dm-Relish; -0.386 z-score with GST-Aq-NF-kB.

Turning to “CCGATTAACATCAGATGGATCGATGATGTTAATCGGGTCTTGATTCGCTTGACGCTGCTG”, the binding signal was -0.59 z-score in the test with GST-Ap-NF-kB RHD; -0.408 z-score in test [1]; -0.576 z-score with GST-Co-NF-kB; -1.05 z-score in the test with GST-Dm-Relish; -0.57 z-score with GST-Aq-NF-kB.

As to “CCGATTAACATCACTACACGGCGTGATGTTAATCGGGTCTTGATTCGCTTGACGCTGCTG”, the binding signal in the test with GST-Ap-NF-kB RHD is 0.121 z-score; in test [1], -0.799 z-score; with GST-Co-NF-kB, 0.0749 z-score; with GST-Dm-Relish it was 0.179 z-score; with GST-Aq-NF-kB, -0.262 z-score.

Consider “CCGATTAACATCACAGAAATTCCTGATGTTAATCGGGTCTTGATTCGCTTGACGCTGCTG”, for which the binding signal in the test with GST-Ap-NF-kB RHD came out at 0.342 z-score; in test [1] it was 0.157 z-score; with GST-Co-NF-kB, 0.193 z-score; in the test with GST-Dm-Relish, 0.974 z-score; with GST-Aq-NF-kB it was 0.835 z-score.

“CCGATTAACATCACCTTAGGTTTTGATGTTAATCGGGTCTTGATTCGCTTGACGCTGCTG”: the binding signal with GST-Ap-NF-kB RHD is 0.2 z-score; in test [1], 0.0647 z-score; with GST-Co-NF-kB it was -0.0702 z-score; in the test with GST-Dm-Relish, 0.348 z-score; with GST-Aq-NF-kB, 0.48 z-score.

For the sequence “CCGATTAACATCATGACTTACGCTGATGTTAATCGGGTCTTGATTCGCTTGACGCTGCTG”, the binding signal with GST-Ap-NF-kB RHD was -0.372 z-score; in test [1] it was -0.594 z-score; with GST-Co-NF-kB, -0.478 z-score; with GST-Dm-Relish, -0.642 z-score; in the test with GST-Aq-NF-kB, -0.532 z-score.

Consider “CCGATTAACATCACGCGATCATATGATGTTAATCGGGTCTTGATTCGCTTGACGCTGCTG”, for which the binding signal with GST-Ap-NF-kB RHD is -0.0123 z-score; in test [1] it was -0.66 z-score; in the test with GST-Co-NF-kB, -0.807 z-score; with GST-Dm-Relish, -0.195 z-score; with GST-Aq-NF-kB, -0.37 z-score.

Values taken from paper PMC5700166.
